By IC50 is meant the dose at which the fit gives 50% viability; a limit (>, <) means that the fit lies beyond the doses tested. AUC, from the same fit, is the share of area under the viability curve across the 256-fold dose range; values near 1 show little effect.

This passage reports AUC and IC50 results from the supplement of paper PMC4967469.

Compound in this assay: COc1ccc(C2=N[C@@H](c3ccc(Cl)cc3)[C@@H](c3ccc(Cl)cc3)N2C(=O)N2CCNC(=O)C2)c(OC(C)C)c1 [Nutlin-3a]
Nature of the assay: Viability of human cancer cell lines after 72 h of drug (GDSC screen). As for the experimental part: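 Human cancer cell lines in 384-well plates, medium with 10% serum, drug for 72 h over a 256-fold dose range (nine 2-fold or five 4-fold steps up to the top dose). Adherent lines were fixed and stained with the nucleic acid dye Syto60, suspension lines read with resazurin; signal relative to control wells, capped at 0 and 100%. One two-parameter sigmoid per drug and line, fitted in a mixed model over all curves with the slope shared within a line.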

By IC50 is commonly meant the concentration that inhibits the measured activity by half. With “KYSE-510 (oesophagus, adherent, top dose 8 µM)”, the AUC amounted to 0.992 and the IC50 is over 8 µM.
In the same order, the values of “KYSE-520 (oesophagus, adherent, top dose 8 µM)” are 0.973 and over 8 µM.
Regarding “L-363 (myeloma, suspension, top dose 8 µM)”, the AUC is 0.965 and the IC50 was over 8 µM.
Consider “L-428 (Hodgkin lymphoma, suspension, top dose 8 µM)”, for which the AUC was 0.99 and the concentration for half-maximal inhibition (IC50) is over 8 µM.
In the same order, the values of “L-540 (Hodgkin lymphoma, suspension, top dose 8 µM)” are 0.797 and 3.31 µM.
On the same counts, the results for “L-1236 (Hodgkin lymphoma, suspension, top dose 8 µM)” are 0.992 and over 8 µM.
In the same order, the values of “LAMA-84 (chronic myeloid leukaemia, suspension, top dose 8 µM)” are 0.919 and over 8 µM.
Regarding “LAN-6 (neuroblastoma, adherent, top dose 8 µM)”, the AUC came to 0.872 and the IC50 is over 8 µM.
As for “LB373-MEL-D (melanoma, adherent, top dose 8 µM)”, the AUC was 0.923 and the IC50 was over 8 µM.
As for “LB647-SCLC (small cell lung carcinoma, semi-adherent, top dose 8 µM)”, the AUC worked out at 0.985 and the IC50 was over 8 µM.
In the same order, the values of “LB771-HNC (head and neck, adherent, top dose 8 µM)” are 0.978 and over 8 µM.
In the same order, the values of “LB831-BLC (bladder, adherent, top dose 8 µM)” are 0.987 and over 8 µM.
On the same counts, the results for “LB996-RCC (kidney, adherent, top dose 4 µM)” are 0.87 and over 4 µM.
On to “LB1047-RCC (kidney, adherent, top dose 8 µM)”, for which the AUC is 0.983 and the IC50 is over 8 µM.
As to “LB2518-MEL (melanoma, adherent, top dose 8 µM)”, the AUC stood at 0.896 and the IC50 is over 8 µM.
As to “LC4-1 (lymphoblastic leukaemia, suspension, top dose 8 µM)”, the AUC is 0.893 and the IC50 is over 8 µM.
On the same counts, the results for “LC-1-sq (lung squamous cell carcinoma, adherent, top dose 8 µM)” are 0.932 and over 8 µM.
Consider “LC-2-ad (lung adenocarcinoma, adherent, top dose 4 µM)”, for which the AUC was 0.984 and the IC50 was over 4 µM.
On the same counts, the results for “LCLC-97TM1 (large cell lung carcinoma, adherent, top dose 8 µM)” are 0.979 and over 8 µM.
As for “LCLC-103H (large cell lung carcinoma, adherent, top dose 4 µM)”, the AUC was 0.943 and the IC50 is over 4 µM.
In the case of “LK-2 (lung squamous cell carcinoma, adherent, top dose 8 µM)”, the AUC is 0.989 and the IC50 was over 8 µM.
On to LN-18 (glioma, adherent, top dose 8 µM), for which the AUC was determined as 0.994 and the IC50 is over 8 µM.
On the same counts, the results for “LN-405 (glioma, adherent, top dose 8 µM)” are 0.969 and over 8 µM.
On the same counts, the results for “LNZTA3WT4 (glioma, adherent, top dose 8 µM)” are 0.988 and over 8 µM.
In the same order, the values of “LOU-NH91 (lung squamous cell carcinoma, adherent, top dose 8 µM)” are 0.984 and over 8 µM.
Consider “LOUCY (T-cell lymphoblastic leukaemia, suspension, top dose 8 µM)”, for which the AUC was 0.948 and the IC50 was over 8 µM.
For the cell line “LOXIMVI (melanoma, semi-adherent, top dose 8 µM)”, the AUC worked out at 0.806 and the IC50 was 3.54 µM.
In the same order, the values of “LP-1 (myeloma, suspension, top dose 8 µM)” are 0.981 and over 8 µM.
In the same order, the values of “LS-180 (large intestine, adherent, top dose 8 µM)” are 0.856 and 7.94 µM.
In the same order, the values of “LS-411N (large intestine, adherent, top dose 8 µM)” are 0.981 and over 8 µM.
On to “LS-513 (large intestine, adherent, top dose 8 µM)”, for which the AUC was 0.972 and the IC50 was over 8 µM.
In the same order, the values of “LS-1034 (large intestine, adherent, top dose 8 µM)” are 0.975 and over 8 µM.
Take “LU-65 (large cell lung carcinoma, suspension, top dose 8 µM)”: the AUC was found to be 0.987 and the IC50 was over 8 µM.
In the same order, the values of “LU-134-A (small cell lung carcinoma, suspension, top dose 8 µM)” are 0.987 and over 8 µM.
In the same order, the values of “LU-135 (small cell lung carcinoma, suspension, top dose 8 µM)” are 0.992 and over 8 µM.
Consider “LU-139 (small cell lung carcinoma, suspension, top dose 8 µM)”, for which the AUC is 0.946 and the IC50 is over 8 µM.
On the same counts, the results for “LU-165 (small cell lung carcinoma, suspension, top dose 8 µM)” are 0.982 and over 8 µM.
On the same counts, the results for “LXF-289 (lung adenocarcinoma, adherent, top dose 8 µM)” are 0.97 and over 8 µM.
In the same order, the values of “LoVo (large intestine, adherent, top dose 8 µM)” are 0.856 and 6.53 µM.
Turning to M059J (glioma, adherent, top dose 8 µM), the AUC worked out at 0.976 and the IC50 is over 8 µM.
In the same order, the values of “MC116 (B-cell lymphoma, suspension, top dose 8 µM)” are 0.999 and over 8 µM.
On the same counts, the results for “MC-CAR (haematopoietic neoplasm, suspension, top dose 8 µM)” are 0.916 and over 8 µM.
In the same order, the values of “MC-IXC (neuroblastoma, adherent, top dose 8 µM)” are 0.981 and over 8 µM.
For the cell line “MDA-MB-157 (breast, adherent, top dose 8 µM)”, the AUC is 0.942 and the IC50 is over 8 µM.
In the same order, the values of “MDA-MB-231 (breast, adherent, top dose 8 µM)” are 0.979 and over 8 µM.
In the same order, the values of “MDA-MB-330 (breast, adherent, top dose 8 µM)” are 0.947 and over 8 µM.
On the same counts, the results for “MDA-MB-361 (breast, adherent, top dose 8 µM)” are 0.976 and over 8 µM.
For the cell line “MDA-MB-415 (breast, adherent, top dose 8 µM)”, the AUC was determined as 0.983 and the IC50 was over 8 µM.
